# Source: the supplement of paper PMC10126150
# Values marked as one replicate rest on one cluster of the flow cell; about a third of the high ones do not repeat.
# Tested on: ATP
# Assay: switch fluorescence ratio, 500 uM ATP over buffer (Cy3 cluster intensity, sum of 5 cycles each) (fold (ratio)); higher = stronger signal-on switching upon ATP binding; sequences stand for … in TCGTCGGCAGCGTCAGATGTGTATAAGAGACAGTTTTTTTTTTTTTTTTTTTTTTTTT…TC
# Settings: aptamer strand: ATP DNA aptamer (quencher-CACCTGGGGGAGTATTGCGGAGGAAGG + anchor), 100 nM annealed; ATP concentration: 500 uM; one replicate
# Method in brief: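 Clusters with intensities outside 100-1000 RFU were excluded. The remaining Cy3-labelled switching-strand clusters on a modified Illumina MiSeq flow-cell had been annealed to 100 nM quencher-labelled ATP aptamer and imaged in selection buffer, then after 15 min with 500 uM ATP at 22 °C, for five cycles separated by NaOH stripping and re-annealing. The fluorescence ratio, averaged per switch-domain sequence, is each cluster's summed target-cycle Cy3 intensity over its summed buffer-cycle Cy3 intensity.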
# 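Note: ATP exposure 15 min at 22 °C before imaging.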
row,Sequence,switch fluorescence ratio
1,AGGCGCAGAG,0.985
2,AAATACCCCC,1.88
3,ACAGGTTGTG,1.06
4,GAGATTTCTG,0.922
5,CTATCACTAC,1.09
6,CAACGTCACG,1.3
7,CAAACGGGCC,1.38
8,ACCATGGTGT,1.03
9,ATTGTGGGAT,0.964
10,TCAGAGAAAG,1.01
11,ACTAAAGGTT,1.08
12,AAAAGTGGTC,1.05
13,GTCACGATAC,1.93
14,CAGTAGCCTT,1.04
15,GCGCGCCACC,1
16,TCTTCAAACA,1.04
17,GTTGCCCTAG,1.01
18,CAACGGCAGG,1.04
19,TCGGTACCC,1.03
20,GATAACTACG,1.07
21,ACGTAGTCTT,1.02
22,CATTTGTAAC,1.05
23,GAGATGGCTG,0.984
24,GGATCTGATG,1.01
25,CCGTTCGCCT,1.25

row,Sequence,switch fluorescence ratio
1,TCATTATCAG,1.01
2,TAGGACCATT,1.08
3,TCTGGTGGCA,1.03
4,GGTTATCTCG,1.01
5,CACTCGGGTC,1.02
6,AGAAGCGTGT,1
7,AAGGTATCGT,0.972
8,GACATCGGAA,1.04
9,CATTGGTACT,1
10,CGTGACTGAG,0.979
11,ACGGGAGCGG,0.99
12,GAGAACGGGA,0.986
13,CCACGGTTCT,1.02
14,ACAGCGAAGG,1.01
15,TCCTGAGAG,0.989
16,AGCTGGCGCG,1.02
17,AAAAAGTAAA,1.07
18,GAGGTTAAAA,0.98
19,TCTACCGCTT,2.53
20,GTTGTACCCT,1.06
21,GGAGCCAAGG,1.01
22,CGTTCGAGAT,0.996
23,AGAGCTTTAA,1.01
24,TCGAAATAGC,1.22
25,GCAATGACAG,1.06

row,Sequence,switch fluorescence ratio
1,CGCCGGTGCG,0.972
2,TGCCCGTAAG,1.02
3,GGAATAAGC,1.03
4,GCCCGATGCT,1.01
5,TTATCCGATA,1.04
6,GACGCTTG,1.09
7,TCGAGGCAAG,3.76
8,GAGGTCCTCT,1.01
9,TCCTCGAACT,1.16
10,ACTCGCGTAA,1.39
11,GCTATTATT,1.01
12,ATCCTCTGCT,1.77
13,GGTCATGAGT,0.999
14,CGGCCTTTGG,1.03
15,CGTTGGCTTG,0.98
16,ATTACTTGCT,1.03
17,GGGTGTACGT,1.02
18,CGTGCTAGGT,1
19,TAAGCCAACG,1.09
20,TGTTAGGTAT,0.992
21,TGCAATATGG,1.79
22,CACAAGGTGC,1.58
23,ACCGCTTGCT,1.19
24,GTAATGTACA,0.998
25,GTTTTCGGG,0.997

row,Sequence,switch fluorescence ratio
1,AAATCACCGT,1.05
2,GACATTTATG,1.09
3,CAGTTCATTG,0.981
4,ATGGAAAGGC,0.967
5,AACAGTGCGG,1
6,GGGTCATCGC,1.01
7,CTGTAATGTA,1.09
8,AGCCATTCCT,1.18
9,CAGTTATTTT,0.954
10,GGCCCTCGTA,0.992
11,GGCGTACCAT,1
12,GTACTGGTCA,0.957
13,GAAAACAGGA,1.02
14,TGGCTAGTGT,0.943
15,CGTTCAGACA,0.997
16,GTCCGTCAAA,1.08
17,AGGACCCCGG,1
18,CAGTCTTGAG,0.997
19,TTTATACGCC,1.12
20,ATCGAAATCA,1.03
21,CAACACTTTC,1.04
22,CTTACATTAG,1.03
23,GGTGAAGTGG,0.953
24,CCTTAGTTTC,1.11
25,GCGCCCACGG,0.988
